Measured values: PubChem BioAssay AID686979 (National Center for Advancing Translational Sciences (NCATS), 2013)
The campaign covered roughly 420,000 compounds. About 50,000 (12%) were called active. The inconclusive results got no clear call from the source; some entries with a clear call stand among them for comparison. Calls come from the whole dose curve; as a rule, active = well fitted inhibition curve with a large enough effect; inconclusive = small, poorly fitted or top-dose-only effect; inactive = flat fitted curve, though single readings scatter. No potency is given beside an inconclusive call; the fits are too rough.

assay: qHTS for Inhibitors of human tyrosyl-DNA phosphodiesterase 1 (TDP1): qHTS in cells in presence of CPT; details: chicken DT40 Tdp1-/-;hTDP1 cells + 20 nM CPT, ATP luminescence, 48 h; activity change, negative = growth inhibition: at 46.2 µM (top of the series); note: nearly all actives have a fitted effect of over 55% in size
Procedure, shortened: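 Cell growth measured by CellTiter-Glo luminescence after a minimum 48 h, 37 C compound exposure with 20 nM CPT in Tdp1-knockout DT40 cells stably expressing hTDP1, seeded 400/well; qHTS titration format.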
% is set by controls: 0 for no effect and ±100 for the full control effect; potency is the fitted concentration of half-maximal effect; tags give direction and shape of the fitted curve.

Compound	Potency	activity change, negative = growth inhibition
CCOC(=O)CN1C(=O)C(=O)N(Cc2ccccc2F)C1=O	inactive	–
Cc1ccc(-c2ccc(C(=O)NCCCNC(=O)c3cnccn3)o2)cc1Cl	inconclusive [inhibitor, single point]	–
COc1ccc(C(=O)CCNc2ccc3c(c2)OCCO3)cc1	active: 14.6 µM	–
COc1ccc(Cl)cc1NC(=O)C(C)N(C)Cc1cccc(Cl)c1Cl (stereo unspecified)	inconclusive [inhibitor, single point]	–
CC(C)N(Cc1ccccc1)C(=O)C1CCCN(c2ncnc3onc(-c4ccc(F)cc4)c23)C1 (stereo unspecified)	active: 7.31 µM	–
NS(=O)(=O)c1ccc(NC(=O)CSc2nnc3c(n2)[nH]c2ccccc23)cc1	inactive	–
CCOC(=O)c1ccc(NC(=O)CC2Nc3ccccc3NC2=O)cc1 (stereo unspecified)	inconclusive [inhibitor, single point]	–
CCOC(=O)c1ccc(N2C(=O)c3[nH]nc(-c4ccc(OCC)cc4)c3C2c2cccs2)cc1 (stereo unspecified)	active: 7.31 µM	–
Cc1cc(-c2ccc(S(=O)(=O)N3CCN(c4ccc(Cl)cc4)CC3)s2)on1	–	inconclusive: -32% [inhibitor]
COc1ccc(NC(=O)c2sc3nc4c(c(-c5ccc(OC)cc5)c3c2N)C(=O)CC(C)(C)C4)cc1	active: 23.1 µM	–
COc1ccc(-c2nc3scc(CCNC(=O)c4cccc(Br)c4)n3n2)cc1	inconclusive [inhibitor, single point]	–
CCOC(=O)c1c(-c2ccc(-c3ccccc3)cc2)csc1NC(=O)CNCCN(C)C	inconclusive [inhibitor, single point]	–
O/C(=C\c1nc2ccccc2[nH]1)c1cccs1	inconclusive [inhibitor, single point]	–
Cc1cc2n(n1)CCC(=O)N2Cc1ccc(C(=O)Nc2ccc(F)cc2F)cc1	inconclusive [inhibitor, single point]	–
CCCCn1c(SCC(=O)NCc2cccs2)nc2c1c(=O)n(C)c(=O)n2C	inactive	–
O=C(O)c1cccnc1Sc1ccc(Br)cc1	inconclusive [inhibitor, single point]	–
Cc1ccc2nc(/C(C#N)=C\c3ccc(N4CCOCC4)o3)[nH]c2c1	active: 13 µM	–
COc1ccc(S(=O)(=O)N2CCOCC2)cc1NC(=O)COc1cccnc1[N+](=O)[O-]	inactive	–
CN(C)c1ccc(C(CNC(=O)c2ccccc2F)c2c[nH]c3ccccc23)cc1 (stereo unspecified)	inconclusive [inhibitor, single point]	–
CC(C)(C)c1[nH]nc2c1C(c1cccnc1)C(C#N)=C(N)O2 (stereo unspecified)	inactive	–
O=C(NC12CC3CC(CC(C3)C1)C2)c1ccccc1	inactive	–
CCSc1nc2sc3c(c2c(=O)n1-c1ccccc1C)CCN(C)C3	inconclusive [inhibitor, single point]	–
Cc1cc(N=Nc2ccccc2)c(NCC(O)C(O)C(O)CO)cc1C (stereo unspecified)	inactive	–
Cc1cc(C(=O)NC2CCCc3c2cnn3-c2ccc(C)c(C)c2)nc(C)n1 (stereo unspecified)	inconclusive [inhibitor, single point]	–

Compound	Potency	activity change, negative = growth inhibition
Cc1oc(-c2ccc(Cl)cc2)nc1CN1CCC(C(=O)NCCCN2CCCC2=O)CC1	inactive	–
COc1ccc(-c2nc3cnc(N4CCNCC4)nc3n(Cc3cccs3)c2=O)cc1	inconclusive [inhibitor, single point]	–
OCCNc1nc2ccc(Cl)cc2[nH]1	inactive	–
O=C1OCc2ccc([N+](=O)[O-])cc21	inactive	–
Cc1cc(/C=C(\C#N)C(=O)NCc2ccccc2)c(C)[nH]1	inconclusive [inhibitor, single point]	–
COc1ccc(NC(=O)COC(=O)/C=C/C(=O)OCC(=O)Nc2ccc(OC)c(Cl)c2)cc1Cl	inconclusive [inhibitor, single point]	–
Cc1ccc(CNCc2cccn2-c2nnc(N3CCCC3)s2)cc1	inconclusive [inhibitor, single point]	–
COc1ccc(C(=O)N2CCCC(C)(C(=O)NS(=O)(=O)C3CC3)C2)cc1 (stereo unspecified)	inconclusive [inhibitor, partial curve]	–
Cc1ccc(-c2nnc(Nc3ccc(F)cc3)c3ccccc23)cc1S(=O)(=O)N1CCN(C)CC1	inconclusive [inhibitor, single point]	–
CC(=O)Nc1ccc(NC(=O)CSc2nnc(-c3ccco3)n2Cc2ccco2)cc1	inconclusive [inhibitor, partial curve, poor fit]	–
COc1ccc(OC)c(N2C(=O)c3ccccc3C2c2nnnn2-c2ccc3c(c2)OCCO3)c1 (stereo unspecified)	inconclusive [inhibitor, single point]	–
COc1ccc(Cn2c(=S)[nH]c3cc(C(=O)NCCCN4CCOCC4)ccc3c2=O)cc1	inactive	–
CC(C)(C)c1ccc(S(=O)(=O)N2CCN(C3CCCC3)CC2)cc1	inconclusive [inhibitor, partial curve]	–
COCCn1c(SCC(=O)Nc2sc(C)c(C)c2C#N)nnc1-c1ccc(OC)cc1	inactive	–
O=C(c1ccccc1Cl)N1CCCCC1CCN1CCOCC1 (stereo unspecified)	inactive	–
Cc1ccc(C(=O)Nc2ccccc2C(=O)NCc2ccco2)cc1S(=O)(=O)N1CCCCC1	inconclusive [inhibitor, single point]	–
CCOc1cccc2c1Oc1nc(-c3ccccc3)nc(SCC(=O)Nc3ccc(F)cc3)c1C2	inconclusive [inhibitor, single point]	–
COc1cccc(-n2nc(-c3ccnn3-c3ccccc3)c(=O)n(C)c2=O)c1	inactive	–
COc1cc(-c2cc(O)c(-c3ccc4ccccc4n3)c(=O)[nH]2)cc(OC)c1OC	inconclusive [inhibitor, single point]	–
COc1ccc(N2C(=O)CSC23C(=O)Nc2ccccc23)cc1OC (stereo unspecified)	inactive	–
CCCCNC(=O)c1onc(CSc2ccccc2C)c1C(=O)O	inconclusive [inhibitor, single point]	–
CCOc1cc(/C=N/n2c(C)nnc2C)ccc1O	inactive	–
CC(C)Cc1ccc(C(C)/C=C2/CCC(CN3CCCCC3)C2=O)cc1 (stereo unspecified)	active: 2.91 µM	–
CCOC(=O)COc1c(OC)cc(Cl)cc1C1Nc2ccccc2C(=O)N1c1ccc(F)cc1 (stereo unspecified)	inconclusive [inhibitor, single point]	–

Compound	Potency	activity change, negative = growth inhibition
COc1ccccc1/C=C/C(=O)c1ccccc1	inconclusive [inhibitor, single point]	–
CC1CC(C)CN(CCCNC(=O)c2ccc3nc(N4CCCCC4)sc3c2)C1 (stereo unspecified)	inconclusive [inhibitor, single point]	–
C[C@]12c3[nH]c4cc(-c5ccco5)ccc4c3CCN1C(=O)[C@@H](CC(=O)NCCC1=CCCCC1)C[C@@H]2C(=O)N1CCOCC1	active: 16.4 µM	–
COc1ccccc1N1CCN(CC(O)COc2cc(C)cc(C)c2)CC1 (stereo unspecified)	inconclusive [inhibitor, single point]	–
O=C(O)CCC(=O)N1CCc2cc(S(=O)(=O)N3CC=C(c4ccccc4)CC3)ccc21	inconclusive [inhibitor, partial curve]	–
CCN1C(=O)c2cccc3c(S(=O)(=O)N(C)C)ccc1c23	inconclusive [inhibitor, single point]	–
O=C1C(Cl)=C(NCCCN2CCOCC2)C(=O)c2ccccc21	active: 18.4 µM	–
CC1CC1c1ccc(/C=C(\C#N)C(=O)Nc2ccc(Cl)cc2)o1 (stereo unspecified)	inconclusive [inhibitor, single point]	–
CCOc1ccc(N2C(=O)N(Cc3ccc(C)cc3C)c3ccccc3S2(=O)=O)cc1	inconclusive [inhibitor, partial curve]	–
Cc1cccc(OCc2nnc(SCC(=O)N3CC(=O)Nc4ccccc43)o2)c1	inactive	–
CC1CCN(c2nc(N(C)c3ccccc3)nc(N)c2[N+](=O)[O-])CC1	inactive	–
O=C1C2CC=CCC2C(=O)N1Cc1ccccc1Cl (stereo unspecified)	inactive	–
O=c1c2ccccc2n(Cc2cccc(F)c2)c(=O)n1Cc1ccccc1Cl	inconclusive [inhibitor, partial curve]	–
COc1ccc(CNCc2cccc3ccccc23)cc1	inconclusive [inhibitor, single point]	–
O=C(COC(=O)c1ccccc1C(=O)c1ccc(Cl)c([N+](=O)[O-])c1)NC1CCCCCC1	inconclusive [inhibitor, single point]	–
COc1cc(C)c(NC(=S)Nc2ccc(Cl)c(Cl)c2)cc1OC	–	inconclusive: -31% [inhibitor]
COc1cccc(N/C(SCc2ccccc2C)=C(/C#N)C(=O)NCc2cccs2)c1	inconclusive [inhibitor, single point]	–
Cc1cccc(NC(=S)NCc2ccncc2)c1C	inactive	–
CC(=O)c1ccc(NC(=O)NNS(=O)(=O)c2ccc([N+](=O)[O-])cc2)cc1	inactive	–
COc1cccc(CNC(=O)CCCN2C(=O)CSc3c2c(C)nn3-c2ccccc2)c1	inconclusive [inhibitor, partial curve]	–
CCCCN(C(=O)C(C)Oc1ccc(Br)cc1)c1c(N)n(Cc2ccccc2)c(=O)[nH]c1=O (stereo unspecified)	inconclusive [inhibitor, single point]	–
Cc1cc(C(=O)COc2cccnc2[N+](=O)[O-])c(C)n1Cc1ccco1	inconclusive [inhibitor, single point]	–
O=C(COC(=O)C1=COCCO1)Nc1ccc([N+](=O)[O-])cc1C(F)(F)F	inactive	–
